One may read the EC50 as the concentration at which the effect is half-maximal. The Kd is the constant that tells how readily two partners part at equilibrium.

Assay [1] deals with T1, mouse PD-L1 on HEK293A/mouse PD-L1 cells (mouse, UniProt Q9EP73).
T1 construct: Stably expressed on HEK293A cells by lentiviral transduction
Kind of assay: FACS on HEK293A/mouse PD-L1 cells.

The target of assay [2] is T2, human PD-L1 on HEK293A/human PD-L1 cells (human, UniProt Q9NZQ7).
T2 construct: Stably expressed on HEK293A cells by lentiviral transduction; also called HEK293/human PD-L1 cells; cell surface human PD-L1
Put plainly: FACS blocking assay: PD1-mFc binding to HEK293A/human PD-L1 cells.

The target of assay [3] is T3, monkey PD-L1 on HEK293A/monkey PD-L1 cells (monkey, UniProt Q9NZQ7 (human entry)).
T3 construct: Stably expressed on HEK293A cells by lentiviral transduction; also called HEK293/monkey PD-L1 cells; cell surface monkey PD-L1
Put plainly: FACS on HEK293A/monkey PD-L1 cells.

The target in assay [4] is T2, human PD-L1 on HEK293A/human PD-L1 cells. Put plainly: FACS on HEK293A/human PD-L1 cells.
The target in assay [5] is T4, human PD-L1 (ECD)-his protein (Cat #:10084-H08H, Sino Biological) (human, UniProt Q9NZQ7 partial chain).
T4 construct: Bought reagent; also called human PD-L1 protein; not shown: his tag of the bought protein
Put plainly: SPR (BIAcore 8K), PD-L1 (ECD)-his coupled to the chip, fusion protein injected. On the procedure: The equilibrium dissociation constant KD was calculated as the kd/kₐ ratio.
(SPR reads the build-up and loss of mass on a sensor chip optically.)

Numbering of substitutions follows the chain as printed.

T2 sequence (Q9NZQ7 19-290 limits assumed): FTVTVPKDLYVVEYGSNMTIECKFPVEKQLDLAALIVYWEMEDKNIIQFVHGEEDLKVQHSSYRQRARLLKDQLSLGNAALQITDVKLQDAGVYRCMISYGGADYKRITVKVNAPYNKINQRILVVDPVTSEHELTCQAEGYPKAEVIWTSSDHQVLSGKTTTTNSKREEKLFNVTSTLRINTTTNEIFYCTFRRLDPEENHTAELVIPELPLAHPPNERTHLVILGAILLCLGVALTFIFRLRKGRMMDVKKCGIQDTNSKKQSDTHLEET
T1 sequence (Q9EP73 19-290 limits assumed): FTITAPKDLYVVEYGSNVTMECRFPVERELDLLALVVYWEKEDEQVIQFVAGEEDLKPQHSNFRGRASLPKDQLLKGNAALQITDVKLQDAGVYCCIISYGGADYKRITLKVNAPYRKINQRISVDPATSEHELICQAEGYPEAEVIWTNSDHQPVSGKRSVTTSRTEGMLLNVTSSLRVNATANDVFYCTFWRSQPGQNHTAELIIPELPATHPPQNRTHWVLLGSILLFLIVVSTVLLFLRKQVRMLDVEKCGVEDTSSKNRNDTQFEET

B1: 10CA192-Fc (camelid anti-PD-L1 sdAb 10CA192 fused to human IgG1 Fc region) (Fc fusion)
chain: QVQLQESGGGSVQAGGSLMLSCAASGFAFSDYAMTWVRQAPGKGLEWVSTINSGGQSSSYLDSVKGRFTSTRDNAKNMLYLQLNSLKIEDTAMYYCSQGVYMPWKAPKGQGTQVTVSS[letters of human IgG1 Fc left out]
notes: C-terminus of the sdAb linked to the N-terminus of the Fc region; also called fusion protein containing 10CA192; 10CA192-Fe
Take B1: in assay [1], the binding result is “no binding”. Besides, the results for the EC50 in assay [2], in assay [3] and in assay [4] were 180 pM, 170 pM and 510 pM, respectively.

B2: 10CA81-VHH4-Fc (humanized sdAb 10CA81-VHH4 fused to human IgG1 constant region) (Fc fusion)
chain: QVQLLESGGGLVQPGGSLRLSCAASGFAFSDYAMTWVRQAPGKGLEWVSTINSGGQSSSYTNSAKGRFTTSRDNSKNTLYLQMNSLRAEDTAVYYCAKGVYMPWKKPKGQGTLVTVSS[letters of human IgG1 Fc left out]
notes: Expressed in the ExpiCHO system
Consider B2, for which, in assay [5], binding was characterised by a dissociation constant (Kd) of 2260 pM.

B3: 10CA81-VHH5-Fc (humanized sdAb 10CA81-VHH5 fused to human IgG1 constant region) (Fc fusion)
chain: B2 chain with F29V, T70I, A97S, K98Q
notes: Expressed in the ExpiCHO system; also called 10CA81-VH5-Fc
With B3, binding in assay [5] was characterised by a dissociation constant (Kd) of 4540 pM.

B4: 10CA192-VHH4-Fc (humanized sdAb 10CA192-VHH4 fused to human IgG1 constant region) (Fc fusion)
chain: B2 chain with T61L, N62D, A64V, T70S, K106A
notes: as for B2
Molecule B4 returned a Kd in assay [5] of 679 pM.

B5: 10CA81-Fc (camelid anti-PD-L1 sdAb 10CA81 fused to human IgG1 Fc region) (Fc fusion)
chain: B2 chain with L5Q, A23V, S75A, M83L, R87K, A88I, V93M, A97S, K98Q, L113Q
notes: C-terminus of the sdAb linked to the N-terminus of the Fc region; also called fusion protein containing 10CA81
In the case of B5, the binding result in assay [1] is on record as “no binding”. Moreover, the EC50 in assay [2] is 110 pM; in assay [3], 130 pM; in assay [4], 230 pM.

B6: 10CA192-VHH2-Fc (humanized sdAb 10CA192-VHH2 fused to human IgG1 constant region) (Fc fusion)
chain: B2 chain with T61L, N62D, A64V, T70I, K106A, K108W
notes: as for B2
Take B6: in assay [5], the Kd amounted to 800 pM.

The values above are taken from patent US20230382995A1 (BEIJING MABWORKS BIOTECH, published 2023).
